Hit rate of the full screen: of about 360,000 compounds, about 7,500 (2.1%) were called active. This list was built around the results that the source calls inconclusive (neither active nor inactive); the mix of calls is not that of the screen. The call rests on the fitted dose curve; in most records, active means well fitted cell-killing curve with a large enough effect; inconclusive means small, poorly fitted or top-dose-only effect, or effect the other way, or another doubt; inactive means no such curve, though single readings can be large or run the other way. No potency is given beside an inconclusive call; the fits are too rough.
test: qHTS for induction of synthetic lethality in tumor cells producing 2HG: qHTS for the HT-1080-IDH1KD cell line; conditions: HT-1080 IDH1 knockdown viability, ATP luminescence, 48 h; activity, negative = toxicity: at 46.1 µM (top of the series) unless noted;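 on activity, negative = toxicity: 0% = DMSO wells and -100% = cell-free medium wells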
Outline: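 Viability of IDH1-knockdown HT-1080 fibrosarcoma cells was assessed by CellTiter-Glo after 48 h at 37 °C with titrated compound; concentration-effect curves were classified by fit quality and response size.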
Potency means the concentration at half of the fitted maximal effect; tags describe the fitted curve by direction and shape.

SMILES | Potency | activity, negative = toxicity
Cc1ccc(OCCCC(=O)Nc2ccc(Cl)c(S(=O)(=O)N3CCOCC3)c2)cc1 | inactive | 
COc1cccc(NC(=O)CCCN2C(=O)C3CC=CCC3C2=O)c1 (configuration not stated) | active: 10.3 µM | 
CCOC(=O)c1ccc(NC(=S)NNC(=O)C2(C)CC2(Cl)Cl)cc1 (configuration not stated) | inconclusive [cytotoxic, single point] | 
O=C(Cc1ccccc1[N+](=O)[O-])NCC(=O)c1ccc2c(c1)OCO2 | inactive | 
O=C(NC1CCCC1)c1cc(-c2cccs2)on1 | inconclusive [cytotoxic, single point] | 
O=C(Cn1c(=O)c(=O)n(Cc2ccccc2)c2ccc(Cl)cc21)Nc1ccc(F)cc1F |  | inconclusive: -1.78% [cytotoxic]
NC1=NC(c2ccc(Cl)cc2)C(C(=O)c2ccccc2)N1 (configuration not stated) | active: 14.6 µM | 
Cc1cccc(C)c1Cn1c(C)c(C(=O)NCc2cccc(Cl)c2)sc1=O | inconclusive [cytotoxic, single point] | 
COc1ccc(-c2ccc([C@H]3[C@@H]4C=CCC[C@@]4(C)C(=O)N3Cc3ccccc3)c(F)c2)cc1 | inconclusive [cytotoxic, single point] | 
O=C(Cc1ccccc1)NC1CCN(S(=O)(=O)c2ccc(C(=O)O)cc2)CC1 | inconclusive [rising, partial curve, poor fit] | 
COc1ccc(C2c3c(ncn(CCCO)c3=N)Oc3ccc4ccccc4c32)cc1OC (configuration not stated) | active: 23.1 µM | 
Cc1cc(C)c2nc(NNC(=O)c3cc(-c4cccs4)nc4ccccc34)sc2c1 | inconclusive [cytotoxic, single point] | 
COc1ccc(-c2nc3cc(C)ccn3c2NC(=O)c2ccccc2OC)cc1 | inconclusive [cytotoxic, single point] | 
Cc1ccc(NC(=O)Cn2nnc(C(=O)NCc3ccco3)c2N)c(C)c1 | inconclusive [cytotoxic, single point] | 
Cc1ccccc1C(=O)N1CCN(c2ccc(NC(=O)c3cccc(OC(C)C)c3)cc2)CC1 | inactive | 
Cc1cc(N/N=C/c2cccc(Cl)c2)nc(-n2nc(C)cc2C)n1 | inconclusive [cytotoxic, partial curve] | 
Cc1ccccc1C(=O)/C=C1/c2ccccc2CC(C)(C)N1C | inconclusive [cytotoxic, single point] | 
O=C1N/C(=N/c2ccccn2)SC1Cc1ccccc1 (configuration not stated) | active: 10 µM | 
O=C(Nc1ccccc1)N1CCc2c([nH]c3ccccc23)C1C(F)(F)F (configuration not stated) | inactive | 
CCc1cc(C(=O)NCC(C)(C)N2CCOCC2)sc1C | inactive | 
CCC1C(c2ccccc2)N(C)C(c2ccccc2)CC1(O)c1ccccc1 (configuration not stated) | active: 16.4 µM | 
CCCOc1ccc(C(=O)C(CN2CCOCC2)c2ccccc2)cc1 (configuration not stated) | active: 16.4 µM | 
CC12CCC(O)CC1=CCC1C2CCC2(C)c3[nH]ncc3CC12 (configuration not stated) | inconclusive [cytotoxic, single point] | 
COC(=O)c1ccc(Sc2nnnn2-c2ccccc2)c([N+](=O)[O-])c1 | inconclusive [cytotoxic, single point] | 

SMILES | Potency | activity, negative = toxicity
Nc1[nH]n(-c2ccccc2)c(=O)c1N=Nc1ccc2ncsc2c1 | inconclusive [cytotoxic, single point] | 
CSC(SC)=C(C#N)C(=O)c1ccccc1 | active: 20.6 µM | 
O=C(OC(c1ccc(NS(=O)(=O)c2ccccc2)cc1)(C(F)(F)F)C(F)(F)F)c1ccccc1 | inconclusive [cytotoxic, single point] | 
CC1=CC(C)(C)N(S(=O)(=O)c2ccc(C)cc2)c2ccc(C)cc21 | active: 6.31 µM | 
Cc1cccc(NC(=O)CSc2nc(C)c(Cc3ccccc3)c(=O)[nH]2)c1 | inactive | 
Cc1ccc(C)c(S(=O)(=O)Nc2ccc3sc(C)nc3c2)c1 | inconclusive [cytotoxic, single point] | 
Cc1ccc(NC(=O)c2ccc3nc[nH]c3c2)nc1 | inconclusive [cytotoxic, single point] | 
COc1ccc(NC(=O)c2sccc2SCc2cccc(C(F)(F)F)c2)cc1 | active: 8.91 µM | 
CCOC(=O)c1cc(NC(=O)C2C3CCC(O3)C2C(=O)O)cc(C(=O)OCC)c1 (configuration not stated) | inconclusive [cytotoxic, single point] | 
Cc1ccc(CNC(=O)C2CCN(S(=O)(=O)c3cnc[nH]3)CC2)cc1 | inconclusive [rising, full curve, poor fit] | 
CC(=O)Nc1cc(-c2ccc(N3CCN(C)CC3)cc2)cn2c(-c3ccccc3)cnc12 | active: 20.6 µM | 
O=C(N/N=C/c1ccccc1O)c1ccncc1 | inconclusive [cytotoxic, full curve] | 
Cc1cccc2[nH]c3c(N4CCC5(CC4)OCCO5)ncnc3c12 | active: 18.4 µM | 
CC(C)(C)N(NC(=O)Nc1ccc(Cl)c(Cl)c1)C(=O)c1ccccc1 | active: 18.4 µM | 
CC(=O)Nc1ccc(C(=O)NNC(=O)CCCCC(=O)NNC(=O)c2ccc(NC(C)=O)cc2)cc1 | inconclusive [cytotoxic, single point] | 
Cc1cccc(C)c1NC(=O)C1(C)CCC(=O)N1CCOc1ccccc1 (configuration not stated) | inconclusive [rising, partial curve, poor fit] | 
O=C(NC1CCCCC1)C(c1ccccc1F)n1c(=O)c(-c2cc3ccccc3[nH]2)nc2ccccc21 (configuration not stated) | inconclusive [cytotoxic, partial curve, poor fit] | 
COc1cc(-c2c(-c3ccc4c(c3)OCO4)noc2C)ccc1F | inconclusive [cytotoxic, single point] | 
COc1ccc(/C=N/NC(=O)c2ccc(COc3ccccc3Cl)o2)cc1 | inconclusive [cytotoxic, single point] | 
O=C1C(c2ccccc2)CN1Cc1ccccc1 (configuration not stated) | inactive | 
Cc1csc2c(=O)sc(NC(=O)c3cccs3)nc12 | inconclusive [cytotoxic, single point] | 
Cc1sc2ncn(/N=C/c3ccco3)c(=O)c2c1C | inactive | 
COc1ccc(C(=O)Nc2cccc3c2CCCC3)cc1 | inconclusive [cytotoxic, partial curve] | 
O=[N+]([O-])C1C(c2ccccc2)C12c1ccccc1-c1ccccc12 (configuration not stated) | active: 6.51 µM | 

SMILES | Potency | activity, negative = toxicity
CC(=O)N(C)C1=C(N2CCOCC2)C(=O)c2ccccc2C1=O | active: 0.891 µM | 
CCCCNC(=O)COC(=O)c1c2c(nc3ccccc13)/C(=C/c1cccs1)CC2 | inconclusive [cytotoxic, single point] | 
CC[C@@]1(C(=O)OC)N[C@H](CN(C)C(=O)Nc2ccc(OC)cc2)[C@@H]2C(=O)N(C)C(=O)[C@@H]21 | inactive | 
Cc1ccccc1NC(=O)c1ccc(NC(=O)C2CCCO2)cc1 (configuration not stated) | inactive | 
Cc1ccsc1/C=N/NC(=O)c1ccc([N+](=O)[O-])cc1 | inconclusive [cytotoxic, single point] | 
COc1cccc(C(O)c2nc(-c3ccc(Cl)cc3)cs2)c1 (configuration not stated) | inconclusive [cytotoxic, single point] | 
CC1(C)C(C=C(Cl)Cl)C1C(=O)N(Cc1ccc(Cl)cc1)C1CCS(=O)(=O)C1 (configuration not stated) | inconclusive [cytotoxic, single point] | 
CCOC(=O)c1sc(N)c(C(=O)Nc2ccccc2OC)c1C | active: 7.31 µM | 
CC1=C(C)/C(=N\OS(=O)(=O)c2ccc(C)cc2)C=CC1=O | active: 6.51 µM | 
COc1ccccc1NC(=O)Cc1csc(NC(=S)Nc2ccc(C)cc2)n1 | active: 7.08 µM | 
COc1cccc(C2C(=O)N(C3CCCCC3)CC(=O)N2Cc2ccc(F)cc2)c1 (configuration not stated) | inconclusive [cytotoxic, full curve, poor fit] | 
CCc1ccc(N(C(=O)c2snc(C(N)=O)c2N)C(C(=O)NC2CCCC2)c2ccncc2)cc1 (configuration not stated) | inconclusive [cytotoxic, single point] | 
CCN(Cc1ccccc1)S(=O)(=O)c1ccc(C(=O)Nc2nnc(C)o2)cc1 | inconclusive [cytotoxic, partial curve] | 
O=C(NCC(c1cccs1)N1CCOCC1)c1ccc(OCc2ccccc2)cc1 (configuration not stated) | inactive | 
COc1ccc2nc(NC(=O)c3cnccn3)sc2c1 | active: 7.94 µM | 
Cc1ccc(Nc2c([N+](=O)[O-])c(=O)oc3ccccc23)cc1C | inconclusive [cytotoxic, single point] | 
Cc1ccc(C(=O)Nc2nc(-c3ccccn3)cs2)o1 | inconclusive [cytotoxic, partial curve] | 
O=C(CCNC(=O)C1CCN(S(=O)(=O)c2ccccc2)CC1)NCc1ccc(Cl)cc1Cl | inactive | 
O=C(C[C@@H]1C/C=C\CC[C@H](Cc2ccc(F)cc2)C(=O)OC[C@@H](Cc2ccccc2)NC1=O)NCCO | inactive | 
COC(=O)c1c(NC(=O)c2ccccc2OC)sc(C(=O)N2CCOCC2)c1C | inactive | 
COc1c(C)cc(Br)cc1C(=O)Nc1ccc(Cc2ccncc2)cc1 | inconclusive [cytotoxic, single point] | 
CC(C)(C)C1=CC(=O)C(=O)C(C(C)(C)C)=C1 | inconclusive [cytotoxic, single point] | 
Cc1ccc(/C=N/NC(=S)NC2CCS(=O)(=O)C2)cc1 (configuration not stated) | inconclusive [cytotoxic, single point] | 
CC(C)=CCc1c(O)cc(O)c2c1OC(c1ccc(O)cc1)CC2=O (configuration not stated) | inactive | 

— PubChem BioAssay AID686971 (National Center for Advancing Translational Sciences (NCATS), 2013)
